Measurements reported in PubChem BioAssay AID588453 (National Center for Advancing Translational Sciences (NCATS), 2011).
“And” between values parts separate entries of the source, which are not always exact repeats. Identical values can stand only once. The whole screen tested about 390,000 compounds, of which about 4,000 (1%) were called active. The shares of active, inactive and inconclusive entries below differ from those in the screen. Calls come from the whole dose curve; as a rule, active = well fitted inhibition curve with a large enough effect; inconclusive = small, poorly fitted or top-dose-only effect; inactive = no such curve, though single readings can be large or run the other way. Potencies of inconclusive entries are doubtful fits and often do not repeat.

These compounds were tested against Thioredoxin reductase 1, cytoplasmic (Rattus norvegicus) (UniProt O89049) (assay: qHTS Assay for Inhibitors of Mammalian Selenoprotein Thioredoxin Reductase 1 (TrxR1): qHTS). Conditions: recombinant rTrxR1, NADPH fluorescence consumption, selenite substrate; series mostly up to 114 µM; activity change, negative = inhibition: at the top concentration.
Sequence of UniProt O89049 (O89049 whole entry, looked up): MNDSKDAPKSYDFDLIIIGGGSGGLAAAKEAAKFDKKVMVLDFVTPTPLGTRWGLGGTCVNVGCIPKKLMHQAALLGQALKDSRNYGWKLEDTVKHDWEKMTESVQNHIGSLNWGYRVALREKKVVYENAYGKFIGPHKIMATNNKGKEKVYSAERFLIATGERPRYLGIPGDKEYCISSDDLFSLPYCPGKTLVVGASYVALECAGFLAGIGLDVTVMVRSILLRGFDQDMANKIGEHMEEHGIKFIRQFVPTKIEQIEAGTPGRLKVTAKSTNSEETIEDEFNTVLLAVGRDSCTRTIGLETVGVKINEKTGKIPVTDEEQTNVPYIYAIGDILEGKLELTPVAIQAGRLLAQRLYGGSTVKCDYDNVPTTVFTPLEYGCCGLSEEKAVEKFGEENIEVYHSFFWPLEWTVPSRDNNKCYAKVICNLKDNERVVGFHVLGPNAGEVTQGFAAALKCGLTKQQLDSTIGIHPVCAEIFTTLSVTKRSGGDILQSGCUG
How it was run: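 Rat TrxR1 (90 nM in the dispensed reagent) was pre-reduced with 400 uM NADPH for 5 min at room temperature, then incubated with compound for 15 min. After 400 uM selenite was added, NADPH fluorescence (Ex 340/Em 450 nm) was followed for 8 min.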
% is set by controls: 0 for no effect and ±100 for the full control effect; potency is the fitted concentration of half-maximal effect; tags give direction and shape of the fitted curve.
Note: nearly all actives have a fitted effect of over 65% in size.

| SMILES | Potency | activity change, negative = inhibition |
| --- | --- | --- |
| Cc1ccc(-n2nc(-c3ccco3)cc2C(=O)O)cc1 | inconclusive: 70.8 µM [inhibitor, partial curve] |  |
| CCN1CCOC(=O)C1CC(=O)Nc1ccc(Br)cc1 (configuration not stated) | active: 70.8 µM |  |
| CC1(C)CC(=O)C2=C(C1)N(c1ccccc1)C(N)=C(C#N)C2c1ccccc1 (configuration not stated) |  | inactive: -24.4% [at 57.1 µM] |
| O=C(Nc1cccc(C(F)(F)F)c1)c1cccnc1N1CCN(c2ccccc2)CC1 | inconclusive: 14.1 µM [inhibitor, partial curve] |  |
| COc1ccc(Nc2oc(COc3ccccc3F)nc2C#N)cc1 | inconclusive: 17.8 µM [inhibitor, partial curve, poor fit] |  |
| O=C(O)CCc1ccc(-c2ccccc2)n1Cc1ccco1 | inconclusive: 12.6 µM [inhibitor, full curve] |  |
| S=C1NCN(Cc2cccnc2)CN1 |  | inactive: -12.8% [at 57.1 µM] |
| O=C(C1CCCO1)N1CCN(C(c2ccccc2)c2ccccc2)CC1 (configuration not stated) | inconclusive: 35.5 µM [inhibitor, partial curve, poor fit] |  |
| CC1Cc2cc(S(=O)(=O)CCC(=O)NCc3ccco3)ccc2N1C(=O)C1CC1 (configuration not stated) | inconclusive: 79.4 µM [inhibitor, partial curve] |  |
| CC(C)c1ccccc1NC(=O)c1cccc(NC(=O)c2ccccc2)c1 |  | inactive: 11.8% [at 57.1 µM] |
| CS/C(=C\[N+](=O)[O-])Nc1ccc(F)cc1 | inconclusive: 14.1 µM [inhibitor, single point] |  |
| Cn1c(N)c(C(=O)/C=C/c2ccccc2)c(=O)[nH]c1=O |  | inactive: -10.1% |
| COC(=O)CC1C(=O)NCCN1C(=S)NC(=O)c1sc2ccccc2c1Cl (configuration not stated) | inconclusive: 79.4 µM [inhibitor, partial curve] |  |
| S=c1[nH]nc(COc2ccccc2)n1-c1ccc(Cl)cc1 | inconclusive: 44.7 µM [inhibitor, partial curve, poor fit] |  |
| Nc1ccc2c(c1)C(=O)C(=O)c1ccccc1-2 | active: 6.31 µM |  |
| N/C(=N\OC(=O)c1ccccc1)c1ccccn1 |  | inactive: 24.1% |
| CC1(C)CC(=O)C2=C(C1)Nc1[nH]n(-c3ccccc3)c(=O)c1C2c1ccc2c(c1)OCO2 (configuration not stated) | inconclusive: 15.8 µM [inhibitor, full curve, poor fit] |  |
| COc1ccc(N=C2C=CC(=O)O2)cc1 | active: 10 µM |  |
| Cc1ccccc1NC(=O)c1ccccc1OCC(=O)Nc1ccc(Br)cc1 |  | inactive: -23.7% |
| CCOC(=O)/C=C/C(=O)Nc1ccccc1C(=O)NC1CCCCC1 | inconclusive: 89.1 µM [inhibitor, single point] |  |
| Cc1ccc(C)c(S(=O)(=O)Nc2ccc3oc(C)c(C(=O)O)c3c2)c1 |  | inactive: -7.92% |
| CCOc1cc(C2C(C(=O)N3CCCCC3)=C(C)NC3=C2C(=O)CCC3)cc(Br)c1O (configuration not stated) | inconclusive: 22.4 µM [inhibitor, single point] |  |
| NS(=O)(=O)c1ccc(CCNC(=O)c2cc(-c3ccco3)nc3ccccc23)cc1 | inconclusive: 3.98 µM [inhibitor, full curve, poor fit] |  |

| SMILES | Potency | activity change, negative = inhibition |
| --- | --- | --- |
| COc1cccc(OCc2nnc(SCC(=O)NCc3ccco3)n2CCc2ccccc2)c1 | inconclusive: 11.2 µM [inhibitor, full curve, poor fit] |  |
| CCCOC1(NC(=O)c2ccccc2)C(C)=CC(=O)C=C1C | inconclusive: 44.7 µM [inhibitor, partial curve, poor fit] |  |
| Cc1cc(N2CCN(c3cc(Cl)ccc3C)CC2)n2nc(-c3ccccc3)nc2n1 | inconclusive: 79.4 µM [inhibitor, partial curve, poor fit] |  |
| COc1ccc(NC(=S)NCC2CCN(c3ccc(OC)cc3)C2)cc1 (configuration not stated) | inconclusive: 31.6 µM [inhibitor, single point] |  |
| Cc1nnc(SC(C)C(=O)Nc2ccc(Cl)cn2)n1Cc1ccccc1 (configuration not stated) |  | inactive: 6.04% |
| CSCCC(NC(=O)c1ccco1)C(=O)NCC1CCCCC1 (configuration not stated) | inconclusive: 89.1 µM [inhibitor, single point] |  |
| CC1=C(C(=O)OC(C)C)C(c2cccc([N+](=O)[O-])c2)n2c(cc(=O)[nH]c2=S)N1 (configuration not stated) | inconclusive: 50.1 µM [inhibitor, partial curve] |  |
| CC(=O)c1ccc(NC(=O)c2cc3c(=O)oc4ccc(C)cc4c3s2)cc1 |  | inactive: 10% |
| CN(C)c1ccc(C=c2c3ccccc3n3c2c2c([n+]3C)CCCC2)cc1 | inconclusive: 50.1 µM [inhibitor, partial curve] |  |
| CCOc1ccccc1N1Cc2ccccc2C1 | inconclusive: 70.8 µM [inhibitor, partial curve] |  |
| O=C(CSCc1ccccc1Cl)N/N=C/c1ccco1 | inconclusive: 79.4 µM [inhibitor, partial curve, poor fit] |  |
| CC(C)Oc1ccc(/C(O)=C2/C(=O)C(=O)N(CCN(C)C)C2c2cccs2)cc1 (configuration not stated) | inconclusive: 89.1 µM [inhibitor, single point] |  |
| CCc1cc(SC#N)cc(C)c1NC(=O)CCl | inconclusive: 11.2 µM [inhibitor, partial curve, poor fit] |  |
| O=C(O)CCSCC(=O)c1ccc2c(c1)OCCO2 | inconclusive: 39.8 µM [inhibitor, single point] |  |
| Cc1c(C(=O)O)oc2c1-c1nn(Cc3ccccc3Cl)cc1CC2 | inconclusive: 50.1 µM [inhibitor, partial curve] |  |
| Cc1ccc(CNC(=O)C2CC3Cn4c(nc5ccccc54)C3N2C)o1 (configuration not stated) | inconclusive: 22.4 µM [inhibitor, single point] |  |
| CO/C=C\C=C/c1nnn(-c2ccc(Cl)cc2)n1 | inconclusive: 70.8 µM [inhibitor, single point] |  |
| Cc1nc2nc(NCc3cccs3)nn2c(C)c1Cl |  | inactive: 24.3% [at 57.1 µM] |
| O=C(C[n+]1ccncc1)c1cccc([N+](=O)[O-])c1 | inconclusive: 79.4 µM [inhibitor, single point] |  |
| N#C/C(=C/c1ccc(N2CCOCC2)o1)C(=O)NC1CCCCC1 | inconclusive: 50.1 µM [inhibitor, partial curve] |  |
| CCOc1cc(CNc2ccc(O)cc2)cc(Cl)c1OCc1ccccc1 |  | inactive: -0.816% |
| COC(=O)c1c(NC(=O)c2ccccc2)sc(C(N)=O)c1C |  | inactive: 25.8% [at 57.1 µM] |
| COc1ccccc1Nc1ccc2c(O)cc(S(=O)(=O)O)cc2c1 | inconclusive: 63.1 µM [inhibitor, partial curve, poor fit] |  |

| SMILES | Potency | activity change, negative = inhibition |
| --- | --- | --- |
| OCCCc1nc2n(n1)C(c1ccccc1)C=C(c1ccc(F)cc1)N2 (configuration not stated) | inconclusive: 22.4 µM [inhibitor, single point] |  |
| c1ccc(-n2nnc(-c3nccs3)n2)cc1 | inconclusive: 56.2 µM [inhibitor, partial curve, poor fit] |  |
| CCOC(=O)C1C(=O)NC(N2CCN(Cc3ccccc3)CC2)=NC1c1ccco1 (configuration not stated) | inconclusive: 28.2 µM [inhibitor, single point] |  |
| Nc1c(C(=O)NCC2CCCO2)sc2nc3c(c(-c4ccco4)c12)CC/C3=C\c1ccco1 (configuration not stated) | active: 14.1 µM |  |
| Cc1ccc(S(=O)(=O)N(CC(O)Cn2c3ccccc3c3ccccc32)c2cccc(C(=O)NCCO)c2)cc1 (configuration not stated) |  | inactive: 13.6% |
| O=[N+]([O-])c1ccc2c(c1)/C(=C/c1ccc(C=S)cc1)C=C2 | inconclusive: 56.2 µM [inhibitor, partial curve, poor fit] |  |
| CC(=O)C1=C(C)NC(SCC(=O)c2ccc(F)cc2)=C(C#N)C1c1ccco1 (configuration not stated) | inconclusive: 12.6 µM [inhibitor, partial curve] |  |
| Cc1ccc(NC2=C(Cl)C(=O)OC2OC(=O)c2ccco2)cc1 (configuration not stated) | inconclusive: 15.8 µM [inhibitor, partial curve] |  |
| COC(=O)C(CCSC)NC(=O)C1CCN(c2ncnc3c2nc2n3CCCCC2)CC1 (configuration not stated) |  | inactive: 9.76% |
| CC(=O)Oc1ccc2c(c1)O/C(=C\c1ccncc1)C2=O | inconclusive: 15.8 µM [inhibitor, full curve, poor fit] |  |
| Oc1cc2c(cc1O)C(c1ccccc1)CNCC2 (configuration not stated) | inconclusive: 15 µM [inhibitor, partial curve] and inconclusive: 4.74 µM [inhibitor, partial curve, poor fit] |  |
| COc1ccc(/C=C2\Oc3cc(OCC(=O)N4CC(O)C[C@H]4C(=O)O)ccc3C2=O)c(OC)c1OC (some centres not stated) | inconclusive: 50.1 µM [inhibitor, partial curve, poor fit] |  |
| CN(C)CCC(=O)N1C/C(=C/c2ccccc2)C(=O)/C(=C\c2ccccc2)C1 | inconclusive: 2.82 µM [inhibitor, single point] |  |
| O=C(CN1CCOCC1)N1CCN(c2nnc(-c3ccccc3)c3ccccc23)CC1 | inconclusive: 28.2 µM [inhibitor, single point] |  |
| NC(=O)c1cnn2c(C(F)(F)F)cc(-c3ccc(F)cc3)nc12 | inconclusive: 89.1 µM [inhibitor, single point] |  |
| COc1ccc(C(=O)/C=C/C(=O)N(CC(=O)NC2CCCCC2)Cc2ccc(F)cc2)c(O)c1 | active: 3.98 µM |  |
| Clc1ccc(Nc2nc(C3CC3)cs2)cc1 | inconclusive: 89.1 µM [inhibitor, single point] |  |
| CC(=O)C1C(=O)C=C(c2ccco2)CC1c1ccccc1 (configuration not stated) | inconclusive: 79.4 µM [inhibitor, single point] |  |
| O=C(CCOc1ccccc1)N(Cc1cccnc1)c1nc2c(F)cc(F)cc2s1 | inconclusive: 8.91 µM [inhibitor, partial curve, poor fit] |  |
| CN(C)c1ccc2cc(S(=O)(=O)O)cc(O)c2c1 |  | inactive: 165% |
| COc1ccc(N2C(=O)CC(Sc3nc4ccccc4s3)C2=O)cc1OC (configuration not stated) | inconclusive: 70.8 µM [inhibitor, partial curve] |  |
